The other results are listed elsewhere or left out.
B1: PhoQ; a variant is named by its letters at X, in order, P23837 (parent)
chain: MKKLLRLFFPLSLRVRFLLATAAVVLVLSLAYGMVALIGYSVSFDKTTFRLLRGESNLFYTLAKWENNKLHVELPENIDKQSPTMTLIYDENGQLLWAQRDVPWLMKMIQPDWLKSNGFHEIEADVNDTSLLLSGDHSIQQQLQEVREDDDDAEMTHSVAVNVYPATSRMPKLTIVVVDTIPVELKSSYMVWSWFIYVLSANLLLVIPLLWVAAWWSLRPIEALAKEVRELEEHNRELLNPATTRELTSLVRNLNRLLKSERERYDKYRTTLTDLTHSLKTPLXXLQXXLRSLRSEKMSVSDAEPVMLEQISRISQQIGYYLHRASMRGGTLLSRELHPVAPLLDNLTSALNKVYQRKGVNISLDISPEISFVGEQNDFVEVMGNVLDNACKYCLEFVEISARQTDEHLYIVVEDDGPGIPLSKREVIFDRGQRVDTLRPGQGVGLAVAREITEQYEGKIVAGESMLGGARMEVIFGRQHSAPKDE

Variants of: B1
Test: enrichment ratio after two sorts for PhoP signalling (ratio (wild type AVST 3.29)); higher = more functional
Conditions: with PhoP (E. coli)

AKIE and RQFI cannot be ordered by enrichment ratio: ≤ 0.25 for the first, ≤ 0.25 for the second.

HVRV and GDAY cannot be ordered by enrichment ratio: ≤ 0.25 for the first, ≤ 0.25 for the second.

Compared with STQS, YKLE is higher in enrichment ratio: ≤ 0.25 for the first, 3.65 for the second.

Going from NKQQ to MSHI, the enrichment ratio rises from ≤ 0.25 to 2.06.

IYRC and IGQC cannot be ordered by enrichment ratio: ≤ 0.25 for the first, ≤ 0.25 for the second.

EREL and QQSQ cannot be ordered by enrichment ratio: ≤ 0.25 for the first, ≤ 0.25 for the second.

IDSQ and PQAP cannot be ordered by enrichment ratio: ≤ 0.25 for the first, ≤ 0.25 for the second.

GHCK and YPYF cannot be ordered by enrichment ratio: ≤ 0.25 for the first, ≤ 0.25 for the second.

HKKR and LQEN cannot be ordered by enrichment ratio: ≤ 0.25 for the first, ≤ 0.25 for the second.

YENG and FDKN cannot be ordered by enrichment ratio: ≤ 0.25 for the first, ≤ 0.25 for the second.

AEVA and PWFT cannot be ordered by enrichment ratio: ≤ 0.25 for the first, ≤ 0.25 for the second.

VKGK and VASD cannot be ordered by enrichment ratio: ≤ 0.25 for the first, ≤ 0.25 for the second.

SKQP and ERYH cannot be ordered by enrichment ratio: ≤ 0.25 for the first, ≤ 0.25 for the second.

FIFV and HSLW cannot be ordered by enrichment ratio: ≤ 0.25 for the first, ≤ 0.25 for the second.

WSNQ and RSTS cannot be ordered by enrichment ratio: ≤ 0.25 for the first, ≤ 0.25 for the second.

GGLW and ESLH cannot be ordered by enrichment ratio: ≤ 0.25 for the first, ≤ 0.25 for the second.

ECWL and EHLF cannot be ordered by enrichment ratio: ≤ 0.25 for the first, ≤ 0.25 for the second.

Compared with MLGM, SGIS is higher in enrichment ratio: 3.59 for the first, 6.52 for the second.

KFPT and GPHI cannot be ordered by enrichment ratio: ≤ 0.25 for the first, ≤ 0.25 for the second.

SKDI and RQIK cannot be ordered by enrichment ratio: ≤ 0.25 for the first, ≤ 0.25 for the second.

KNHP and LERW cannot be ordered by enrichment ratio: ≤ 0.25 for the first, ≤ 0.25 for the second.

QEQG and MNQC cannot be ordered by enrichment ratio: ≤ 0.25 for the first, ≤ 0.25 for the second.

SKNP and LDLI cannot be ordered by enrichment ratio: ≤ 0.25 for the first, ≤ 0.25 for the second.

LEKI and EKRG cannot be ordered by enrichment ratio: ≤ 0.25 for the first, ≤ 0.25 for the second.

DNHE and RPGK cannot be ordered by enrichment ratio: ≤ 0.25 for the first, ≤ 0.25 for the second.

First: KYDH
Second: NHNP
The enrichment ratio of the first is higher: 1.19 for the first, ≤ 0.25 for the second.

Compared with STMN, ASWM is lower in enrichment ratio: 2.85 for the first, ≤ 0.25 for the second.

YPLG and YKWY cannot be ordered by enrichment ratio: ≤ 0.25 for the first, ≤ 0.25 for the second.

WDGN and NHWH cannot be ordered by enrichment ratio: ≤ 0.25 for the first, ≤ 0.25 for the second.

WMSN and VSFR cannot be ordered by enrichment ratio: ≤ 0.25 for the first, ≤ 0.25 for the second.

Compared with GCLT, FLSR is lower in enrichment ratio: 6.49 for the first, ≤ 0.25 for the second.

HCMH and IKCE cannot be ordered by enrichment ratio: ≤ 0.25 for the first, ≤ 0.25 for the second.

Going from FEMP to MGLS, the enrichment ratio rises from ≤ 0.25 to 5.14.

MNYN and IRGL cannot be ordered by enrichment ratio: ≤ 0.25 for the first, ≤ 0.25 for the second.

First: SPSW
Second: MGIM
The enrichment ratio of the first is lower: ≤ 0.25 for the first, 10.8 for the second.

FYDK and QYMC cannot be ordered by enrichment ratio: ≤ 0.25 for the first, ≤ 0.25 for the second.

ENVA and DCCH cannot be ordered by enrichment ratio: ≤ 0.25 for the first, ≤ 0.25 for the second.

MFKR and YFLS cannot be ordered by enrichment ratio: ≤ 0.25 for the first, ≤ 0.25 for the second.

IHCP and LYWD cannot be ordered by enrichment ratio: ≤ 0.25 for the first, ≤ 0.25 for the second.

TRRH and RYQN cannot be ordered by enrichment ratio: ≤ 0.25 for the first, ≤ 0.25 for the second.

DDQN and EIKT cannot be ordered by enrichment ratio: ≤ 0.25 for the first, ≤ 0.25 for the second.

VQTH and WMDL cannot be ordered by enrichment ratio: ≤ 0.25 for the first, ≤ 0.25 for the second.

AANL and GDQE cannot be ordered by enrichment ratio: ≤ 0.25 for the first, ≤ 0.25 for the second.

Compared with GEGV, SLSR is lower in enrichment ratio: 0.932 for the first, ≤ 0.25 for the second.

VCNC and KRSL cannot be ordered by enrichment ratio: ≤ 0.25 for the first, ≤ 0.25 for the second.

MENA and EFPN cannot be ordered by enrichment ratio: ≤ 0.25 for the first, ≤ 0.25 for the second.

RATS and TWQN cannot be ordered by enrichment ratio: ≤ 0.25 for the first, ≤ 0.25 for the second.

WGWY and YDWF cannot be ordered by enrichment ratio: ≤ 0.25 for the first, ≤ 0.25 for the second.

PQVE and LNPR cannot be ordered by enrichment ratio: ≤ 0.25 for the first, ≤ 0.25 for the second.

First: MIFV
Second: MALR
The enrichment ratio of the first is higher: 1.18 for the first, ≤ 0.25 for the second.

LRAG and VPDE cannot be ordered by enrichment ratio: ≤ 0.25 for the first, ≤ 0.25 for the second.

ENTP and LPDW cannot be ordered by enrichment ratio: ≤ 0.25 for the first, ≤ 0.25 for the second.

YMRC and KDKF cannot be ordered by enrichment ratio: ≤ 0.25 for the first, ≤ 0.25 for the second.

MLPH and TKKT cannot be ordered by enrichment ratio: ≤ 0.25 for the first, ≤ 0.25 for the second.

Compared with AIPL, WQVI is lower in enrichment ratio: 5.13 for the first, ≤ 0.25 for the second.

First: PVPY
Second: YSVV
The enrichment ratio of the first is lower: ≤ 0.25 for the first, 3.37 for the second.

RQAC and TGEY cannot be ordered by enrichment ratio: ≤ 0.25 for the first, ≤ 0.25 for the second.

GYDY and FPEY cannot be ordered by enrichment ratio: ≤ 0.25 for the first, ≤ 0.25 for the second.

RFWV and TTIE cannot be ordered by enrichment ratio: ≤ 0.25 for the first, ≤ 0.25 for the second.

HGKE and AVWP cannot be ordered by enrichment ratio: ≤ 0.25 for the first, ≤ 0.25 for the second.

Going from YSTI to ESKM, the enrichment ratio falls from 4.58 to ≤ 0.25.

IRTW and SADD cannot be ordered by enrichment ratio: ≤ 0.25 for the first, ≤ 0.25 for the second.

IILN and HVSA cannot be ordered by enrichment ratio: ≤ 0.25 for the first, ≤ 0.25 for the second.

PMML and FPHC cannot be ordered by enrichment ratio: ≤ 0.25 for the first, ≤ 0.25 for the second.

RMCS and YEFF cannot be ordered by enrichment ratio: ≤ 0.25 for the first, ≤ 0.25 for the second.

VCVS and SPWI cannot be ordered by enrichment ratio: ≤ 0.25 for the first, ≤ 0.25 for the second.

KGGY and SIHC cannot be ordered by enrichment ratio: ≤ 0.25 for the first, ≤ 0.25 for the second.

SGAR and EVSD cannot be ordered by enrichment ratio: ≤ 0.25 for the first, ≤ 0.25 for the second.

KKST and HKHQ cannot be ordered by enrichment ratio: ≤ 0.25 for the first, ≤ 0.25 for the second.

TGFG and FKEM cannot be ordered by enrichment ratio: ≤ 0.25 for the first, ≤ 0.25 for the second.

WMGA and GFIR cannot be ordered by enrichment ratio: ≤ 0.25 for the first, ≤ 0.25 for the second.

QHCR and EWTY cannot be ordered by enrichment ratio: ≤ 0.25 for the first, ≤ 0.25 for the second.

FNDF and WLCY cannot be ordered by enrichment ratio: ≤ 0.25 for the first, ≤ 0.25 for the second.

NHMF and KQVD cannot be ordered by enrichment ratio: ≤ 0.25 for the first, ≤ 0.25 for the second.

VRPT and FYSL cannot be ordered by enrichment ratio: ≤ 0.25 for the first, ≤ 0.25 for the second.

MDYE and PHVQ cannot be ordered by enrichment ratio: ≤ 0.25 for the first, ≤ 0.25 for the second.

GAFK and HIQH cannot be ordered by enrichment ratio: ≤ 0.25 for the first, ≤ 0.25 for the second.

GRTT and KRKQ cannot be ordered by enrichment ratio: ≤ 0.25 for the first, ≤ 0.25 for the second.

HGVG and ALYG cannot be ordered by enrichment ratio: ≤ 0.25 for the first, ≤ 0.25 for the second.

Compared with FWPI, QTWI is higher in enrichment ratio: ≤ 0.25 for the first, 3.53 for the second.

DPGK and HNDA cannot be ordered by enrichment ratio: ≤ 0.25 for the first, ≤ 0.25 for the second.

DLNH and PKLV cannot be ordered by enrichment ratio: ≤ 0.25 for the first, ≤ 0.25 for the second.

TILP and NYGI cannot be ordered by enrichment ratio: ≤ 0.25 for the first, ≤ 0.25 for the second.

Going from YEST to VPMR, the enrichment ratio falls from 12.8 to ≤ 0.25.

VSKY and HKHF cannot be ordered by enrichment ratio: ≤ 0.25 for the first, ≤ 0.25 for the second.

VAQR and WVIS cannot be ordered by enrichment ratio: ≤ 0.25 for the first, ≤ 0.25 for the second.

Going from SMVI to KATI, the enrichment ratio falls from 5.88 to ≤ 0.25.

VIMY and DEDR cannot be ordered by enrichment ratio: ≤ 0.25 for the first, ≤ 0.25 for the second.

MMKI and KHCD cannot be ordered by enrichment ratio: ≤ 0.25 for the first, ≤ 0.25 for the second.

HEPH and TRPH cannot be ordered by enrichment ratio: ≤ 0.25 for the first, ≤ 0.25 for the second.

First: FLVH
Second: FCLE
The enrichment ratio of the first is lower: ≤ 0.25 for the first, 4.04 for the second.

TIKL and MDIS cannot be ordered by enrichment ratio: ≤ 0.25 for the first, ≤ 0.25 for the second.

QTRR and ICWI cannot be ordered by enrichment ratio: ≤ 0.25 for the first, ≤ 0.25 for the second.

IMEE and PQAT cannot be ordered by enrichment ratio: ≤ 0.25 for the first, ≤ 0.25 for the second.

FDIL and LLTP cannot be ordered by enrichment ratio: ≤ 0.25 for the first, ≤ 0.25 for the second.

Compared with STLK, TVEY is lower in enrichment ratio: 10.3 for the first, 0.327 for the second.

VTMY and PKMV cannot be ordered by enrichment ratio: ≤ 0.25 for the first, ≤ 0.25 for the second.

In the case of MYYN, the enrichment ratio is reported as ≤ 0.25.

— a collection of fitness landscapes (doi:10.1126/science.1257360)
